Measured values published in the supplement of paper PMC3334620.
In all, about 33,000 sequences were measured (“E-score (-0.5 to 0.5)”: median about -0.041, highest 2% from about 0.37 on). The list shows a part of the results.

Target: T1, Ecm22 (UniProt Q05958)
T1 sequence: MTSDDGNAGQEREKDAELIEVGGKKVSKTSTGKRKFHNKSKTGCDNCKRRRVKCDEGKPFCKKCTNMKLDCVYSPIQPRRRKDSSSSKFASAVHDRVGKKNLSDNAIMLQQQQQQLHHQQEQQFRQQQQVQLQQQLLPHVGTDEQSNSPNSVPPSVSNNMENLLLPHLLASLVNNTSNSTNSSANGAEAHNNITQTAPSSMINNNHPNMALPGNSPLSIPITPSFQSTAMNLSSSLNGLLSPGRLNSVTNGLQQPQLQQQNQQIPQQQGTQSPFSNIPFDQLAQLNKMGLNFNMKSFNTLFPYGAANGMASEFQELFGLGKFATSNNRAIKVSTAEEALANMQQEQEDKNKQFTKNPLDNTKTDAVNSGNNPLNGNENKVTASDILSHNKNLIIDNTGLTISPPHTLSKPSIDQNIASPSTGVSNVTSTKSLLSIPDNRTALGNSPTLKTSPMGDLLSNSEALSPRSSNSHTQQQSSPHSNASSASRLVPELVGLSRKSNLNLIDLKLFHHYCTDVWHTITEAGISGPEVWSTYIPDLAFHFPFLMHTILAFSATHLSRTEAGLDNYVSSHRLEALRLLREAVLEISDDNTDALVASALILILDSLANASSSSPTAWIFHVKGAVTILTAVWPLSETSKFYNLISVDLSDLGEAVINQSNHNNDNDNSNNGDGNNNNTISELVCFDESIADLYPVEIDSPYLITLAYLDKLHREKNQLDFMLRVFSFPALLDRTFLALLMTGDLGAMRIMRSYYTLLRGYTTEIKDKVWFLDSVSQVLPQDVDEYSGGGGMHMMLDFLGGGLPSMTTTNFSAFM
Assay: PBM E-score (8-mer binding enrichment) (E-score (-0.5 to 0.5)); higher = stronger / more preferred TF binding; most listed sequences are background and not binding sites
Details: protein concentration: 200 nM; construct: GST-full length
Procedure, shortened: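 Bound GST-tagged yeast transcription factors, applied at about 100-200 nM to double-stranded universal all-10-mer Agilent arrays, were detected with fluorescent anti-GST. Scans were normalised with masliner. A modified Wilcoxon-Mann-Whitney statistic, the E-score, was assigned to each ungapped eight-base word pooled with its reverse complement by the Universal PBM Analysis Suite.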

First: AATGCATT
Second: ATCCAACG
The “PBM E-score” value of the first is higher: -0.0107 for the first, -0.119 for the second.

Going from GAATCCAA to GACGGGAC, the “PBM E-score” value rises from -0.16 to -0.0305.

First: ACCCAGTG
Second: AAGGAAAC
The “PBM E-score” value of the first is lower: -0.0151 for the first, 0.0265 for the second.

Compared with ACACACTA, CGGAGAGA is lower in “PBM E-score” value: 0.0728 for the first, 0.0699 for the second.

Compared with AGGCGAAA, TAGCGATA is higher in “PBM E-score” value: -0.0372 for the first, 0.145 for the second.

First: CAGGATGG
Second: CAGGTTAC
The “PBM E-score” value of the first is higher: -0.0588 for the first, -0.164 for the second.

Going from AACCATGA to CATCTTCC, the “PBM E-score” value falls from 0.0773 to -0.111.

Going from ACCGTCGT to ACATTGGC, the “PBM E-score” value falls from 0.404 to -0.152.

Compared with CACCGGAC, CGGGCGAA is lower in “PBM E-score” value: 0.112 for the first, -0.119 for the second.

Going from GGGCGAAC to GTCGGTTA, the “PBM E-score” value rises from -0.0329 to 0.369.

First: AAGCGAAC
Second: CGCGCTCA
The “PBM E-score” value of the first is higher: 0.268 for the first, 0.071 for the second.

Going from ATACGACC to CTATTTCA, the “PBM E-score” value falls from 0.473 to -0.126.

Going from CTGGGCTA to AGCGACGG, the “PBM E-score” value rises from -0.17 to 0.299.

Going from ACGAGCAG to CGCCAGGA, the “PBM E-score” value falls from 0.383 to -0.205.

Compared with AAATCATA, AAAACACC is lower in “PBM E-score” value: 0.196 for the first, -0.212 for the second.

Going from ACGACAAA to ACGTAGCG, the “PBM E-score” value falls from 0.384 to 0.27.

Compared with CTTCAGCC, TACCACAA is higher in “PBM E-score” value: -0.276 for the first, 0.071 for the second.

Compared with AGCAGGCA, TCCTAACA is higher in “PBM E-score” value: -0.165 for the first, -0.0844 for the second.

Compared with AGTCGATC, AATTGGTA is higher in “PBM E-score” value: 0.123 for the first, 0.124 for the second.

First: CCATTAGC
Second: GCTGTCTA
The “PBM E-score” value of the first is higher: -0.0326 for the first, -0.0813 for the second.

Compared with CGATTCAG, AAGAGTCT is lower in “PBM E-score” value: 0.0769 for the first, -0.0637 for the second.

First: CAAGGTCG
Second: CGAGTTAA
The “PBM E-score” value of the first is lower: -0.109 for the first, 0.222 for the second.

Compared with CGGGCCTC, CACTGAAG is lower in “PBM E-score” value: -0.0452 for the first, -0.175 for the second.

Going from ATGGGCCC to CAACGGAC, the “PBM E-score” value rises from -0.157 to -0.0366.

First: AGGGCGTC
Second: CTTCGTGC
The “PBM E-score” value of the first is lower: -0.0399 for the first, 0.0216 for the second.

Going from TCCCGACA to AATAAGAA, the “PBM E-score” value falls from 0.0279 to -0.0401.

Going from AGACTTCA to GTCCTCTA, the “PBM E-score” value falls from -0.115 to -0.181.

Going from AAAGAATA to GGCGACTA, the “PBM E-score” value falls from -0.0162 to -0.0711.

Compared with CTCAATCC, TAGCCTCA is lower in “PBM E-score” value: -0.0357 for the first, -0.138 for the second.

First: ACGCCAGC
Second: ATTTTACA
The “PBM E-score” value of the first is higher: 0.0291 for the first, -0.028 for the second.

Compared with CTCCCCTA, CGCCGCAG is lower in “PBM E-score” value: -0.0506 for the first, -0.188 for the second.

First: CGCTTGCA
Second: ACAGTCCC
The “PBM E-score” value of the first is higher: -0.00412 for the first, -0.262 for the second.

TAGGGGAA and GCATGCAC are the same in “PBM E-score” value: -0.133 for the first, -0.133 for the second.

First: CCGAATCA
Second: GCCATTAA
The “PBM E-score” value of the first is higher: 0.0958 for the first, -0.0291 for the second.

First: GCGTTATA
Second: GACTCCCA
The “PBM E-score” value of the first is higher: 0.0325 for the first, -0.0874 for the second.

Going from CACATCAA to TACGTGCA, the “PBM E-score” value rises from 0.0831 to 0.107.

Compared with CATGGGTC, AGCTCTAG is higher in “PBM E-score” value: -0.278 for the first, -0.186 for the second.

Compared with GAATCAAC, GACACGAA is lower in “PBM E-score” value: 0.219 for the first, 0.126 for the second.

Compared with GGGTCGTA, ACCCCATA is lower in “PBM E-score” value: 0.439 for the first, -0.242 for the second.

Compared with CCTTGAAG, AGAAGGAT is lower in “PBM E-score” value: -0.198 for the first, -0.29 for the second.

First: AGTTCACA
Second: AGGTTAGA
The “PBM E-score” value of the first is higher: 0.00229 for the first, -0.186 for the second.

First: TCAATCAA
Second: CTCAGGCC
The “PBM E-score” value of the first is higher: 0.0397 for the first, -0.149 for the second.

Going from CGTGCCTA to CGTATATC, the “PBM E-score” value rises from -0.232 to 0.439.

Compared with ACCGCAAC, ATCCCCCC is lower in “PBM E-score” value: 0.152 for the first, -0.383 for the second.

Going from CGCCAGGC to ACTCCGCT, the “PBM E-score” value falls from -0.0299 to -0.0723.

First: AGTACTCG
Second: CTTTTCCA
The “PBM E-score” value of the first is higher: 0.277 for the first, -0.271 for the second.

First: AAACGGCT
Second: AAGTGAAG
The “PBM E-score” value of the first is higher: 0.259 for the first, -0.137 for the second.

Going from ATGGAGTG to ACTATCAT, the “PBM E-score” value rises from -0.27 to 0.134.

Compared with ATGGTGGC, AAAAGTGA is higher in “PBM E-score” value: -0.363 for the first, -0.25 for the second.

First: GGAACGGA
Second: GAGTCATA
The “PBM E-score” value of the first is higher: 0.435 for the first, -0.0541 for the second.

Going from ATATTTAC to CGCCTAGC, the “PBM E-score” value falls from 0.234 to -0.28.

Going from GCACGCAA to AGTAACAA, the “PBM E-score” value falls from 0.113 to -0.0844.

Compared with CGCCTACA, CTACAGAG is higher in “PBM E-score” value: -0.131 for the first, -0.0143 for the second.

Compared with GGAATATA, TATGTAGA is lower in “PBM E-score” value: 0.0365 for the first, -0.119 for the second.

Compared with AGATGAGC, CATGCAAG is lower in “PBM E-score” value: -0.0782 for the first, -0.292 for the second.

Going from CCGAGCTA to CACGAGGA, the “PBM E-score” value rises from 0.101 to 0.196.

Compared with GAGATCTC, ATCCTGTA is lower in “PBM E-score” value: 0.244 for the first, -0.00044 for the second.

Compared with AGCAAATG, TAGAGACA is higher in “PBM E-score” value: -0.159 for the first, -0.127 for the second.

Compared with GGCATTAC, CGCGTCAA is higher in “PBM E-score” value: -0.132 for the first, 0.0655 for the second.

Going from ATCGTGAG to ATACTAAA, the “PBM E-score” value rises from -0.137 to 0.228.

Compared with AGCCAAAC, CGAATCTC is higher in “PBM E-score” value: -0.0307 for the first, 0.172 for the second.

Going from CTGCGTCC to CAATCGGG, the “PBM E-score” value rises from -0.182 to -0.0665.

Compared with GGCTTTAA, ATGCGAGA is higher in “PBM E-score” value: -0.0872 for the first, 0.302 for the second.

First: ACGACGCC
Second: CCGCTGCC
The “PBM E-score” value of the first is higher: 0.33 for the first, -0.146 for the second.

Compared with CAAATACC, CACCGTGG is higher in “PBM E-score” value: -0.146 for the first, -0.115 for the second.

Compared with CAGTCCGC, AGCTAAAG is higher in “PBM E-score” value: -0.119 for the first, -0.064 for the second.

Compared with GGCTGCGA, CATCAAAG is lower in “PBM E-score” value: 0.0236 for the first, -0.299 for the second.

Compared with AAACTATA, AAACCTTA is higher in “PBM E-score” value: 0.0413 for the first, 0.0879 for the second.

Going from ACTACGTG to GGAGTCGA, the “PBM E-score” value rises from -0.118 to -0.0423.

First: CGTACGAC
Second: CAGATCAC
The “PBM E-score” value of the first is higher: 0.444 for the first, -0.256 for the second.

First: CGTAATTA
Second: CGATGGAG
The “PBM E-score” value of the first is higher: 0.179 for the first, 0.141 for the second.

Going from ACATATAC to CGGCAGGC, the “PBM E-score” value falls from 0.136 to -0.0556.

First: AGGCAAGG
Second: ACTGGGAT
The “PBM E-score” value of the first is lower: -0.188 for the first, -0.116 for the second.

First: ATGGACGG
Second: CGGCGGGC
The “PBM E-score” value of the first is lower: -0.0733 for the first, 0.00972 for the second.

Compared with ACGCTGGG, GGTAGTTA is higher in “PBM E-score” value: -0.237 for the first, -0.169 for the second.

First: GTGATTCA
Second: AAAGAACC
The “PBM E-score” value of the first is lower: -0.129 for the first, -0.035 for the second.

Going from GCAGCGTA to AAAGGCCT, the “PBM E-score” value falls from -0.0188 to -0.114.

Compared with AACTTTCA, GCTCTCCA is lower in “PBM E-score” value: 0.0277 for the first, -0.28 for the second.

First: CTGACCGA
Second: CTAGTTCA
The “PBM E-score” value of the first is higher: 0.196 for the first, -0.0832 for the second.

Compared with AGATCGGC, AGGGATAG is lower in “PBM E-score” value: -0.106 for the first, -0.109 for the second.

Compared with TACTGATA, AGTCACAC is lower in “PBM E-score” value: 0.116 for the first, -0.245 for the second.

Going from CTTTTTGC to AGATGTAG, the “PBM E-score” value falls from -0.0572 to -0.191.

First: ATTTAGAC
Second: GCGCGTAA
The “PBM E-score” value of the first is lower: -0.0454 for the first, 0.142 for the second.

Going from TAGATAGA to TCATTCGA, the “PBM E-score” value rises from -0.173 to -0.00089.

Going from ATTGCAAC to CCAACGCC, the “PBM E-score” value falls from 0.029 to -0.19.

First: AAACCGGG
Second: CAAGCTGG
The “PBM E-score” value of the first is higher: -0.0388 for the first, -0.19 for the second.
